No constants are given. Whether binding was seen depends on the method and setting. For part of these data: Binding seen in cells or lysates may run through a third protein. Some results given as binding are weak or reduced against the parent protein; the word gives no strength. For part of these data: Where a sequence is shown, tags or fusion partners need not be part of it.
What was measured:
GST-LPAATδ (aa 152–251) = molecular target: T1, GST-LPAATδ (aa 152–251) (UniProt Q9NRZ5); assay: pull-down; GST pull-down: 3 μg His-BARS with 4 μg GST-LPAATδ full length or 3 μg GST-LPAATδ (aa 152–251), glutathione Sepharose; 50 mM Tris pH 8.0, 100 mM KCl, 0.2% Triton X-100, 4 °C; both purified
T1 sequence: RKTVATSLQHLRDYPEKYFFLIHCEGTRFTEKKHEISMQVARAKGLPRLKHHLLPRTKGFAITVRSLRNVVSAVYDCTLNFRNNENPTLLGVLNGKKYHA

GST-LPAATδ (full length) = molecular target: T2, GST-LPAATδ (full length) (UniProt Q9NRZ5); assay: as above
T2 sequence: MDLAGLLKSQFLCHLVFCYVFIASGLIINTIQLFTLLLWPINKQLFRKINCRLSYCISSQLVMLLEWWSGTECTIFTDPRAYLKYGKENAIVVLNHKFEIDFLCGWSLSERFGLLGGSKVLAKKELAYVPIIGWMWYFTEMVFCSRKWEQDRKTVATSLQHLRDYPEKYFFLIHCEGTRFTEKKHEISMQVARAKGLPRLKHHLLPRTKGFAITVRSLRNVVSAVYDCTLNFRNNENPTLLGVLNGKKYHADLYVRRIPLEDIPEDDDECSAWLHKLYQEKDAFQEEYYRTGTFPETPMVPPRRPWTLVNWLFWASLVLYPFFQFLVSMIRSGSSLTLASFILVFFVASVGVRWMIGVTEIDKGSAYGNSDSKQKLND

LPAATδ-tdTomato (human) = molecular target: T3, LPAATδ-tdTomato (human) (UniProt Q9NRZ5); assay: FRET or BRET; FLIM-FRET in fixed COS7 cells co-transfected with donor E^0GFP–BARS and acceptor LPAATδ-tdTomato; donor lifetime in the Golgi area; steady state and VSVG traffic pulse (10 min after the 32 °C release)
T3 sequence: T2 sequence

LPAATδ–Flag (human) [1] = molecular target: T4, LPAATδ–Flag (human) (UniProt Q9NRZ5); assay: co-IP; co-precipitation at steady state and during a traffic pulse (Supplementary Fig. 8); cells and constructs not given
T4 sequence: T2 sequence

LPAATγ–Flag (human) = molecular target: T5, LPAATγ–Flag (human) (UniProt Q9NRZ7); assay: co-IP; IP with anti-FLAG M2 affinity gel from lysate of HeLa cells co-transfected with BARS and LPAAT–Flag; 0.2% Triton X-100, 4 °C; western blot with anti-BARS
T5 sequence: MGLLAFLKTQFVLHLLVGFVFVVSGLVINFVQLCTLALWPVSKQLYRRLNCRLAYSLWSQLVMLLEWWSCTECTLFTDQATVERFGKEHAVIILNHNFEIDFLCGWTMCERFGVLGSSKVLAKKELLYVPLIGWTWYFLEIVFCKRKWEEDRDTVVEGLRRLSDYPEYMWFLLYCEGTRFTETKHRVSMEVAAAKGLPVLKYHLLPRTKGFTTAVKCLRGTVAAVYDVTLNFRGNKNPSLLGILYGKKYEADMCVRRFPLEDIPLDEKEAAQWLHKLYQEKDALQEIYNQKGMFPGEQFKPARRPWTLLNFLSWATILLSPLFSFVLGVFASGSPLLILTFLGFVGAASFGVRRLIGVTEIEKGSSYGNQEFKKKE

LPAATδ–Flag (human) [2] = molecular target: T4, LPAATδ–Flag (human); assay: as above
[3] = molecular target: CtBP1-S/BARS (BARS-pCDNA3) (UniProt Q9Z2F5); assay: co-IP; IP with anti-BARS polyclonal antibody and protein A Sepharose from lysate of HeLa cells co-expressing BARS and LPAAT–Flag; 0.2% Triton X-100, 4 °C; western blot
[4] = molecular target: CtBP1-S/BARS (BARS-pCDNA3) (UniProt Q9Z2F5); assay: co-IP; competition: 160 μg purified EcLPAAT added to 0.8 mg COS7 lysate before IP with anti-BARS polyclonal antibody; 0.2% Triton X-100, 4 °C; only the binder purified
GST-BARS [5] = molecular target: GST-BARS (UniProt Q9Z2F5); assay: pull-down; GST pull-down: 3 μg EcLPAAT with 5 μg GST-BARS, glutathione Sepharose; 20 mM Tris pH 8.0, 1 mM EDTA, 0.2% Triton X-100, 100 mM KCl, overnight, 4 °C; both purified
GST-BARS [6] = molecular target: GST-BARS (UniProt Q9Z2F5); assay: condition: only GST-BARS pre-treated with 120 μM BAC; pull-down; GST pull-down of EcLPAAT with GST-BARS (5 μg) first incubated with 120 μM HPLC-purified BAC for 3 h at 37 °C; both purified
GST-BARS [7] = molecular target: GST-BARS (UniProt Q9Z2F5); assay: condition: only GST-BARS pre-treated with 100 μM NAD^+; pull-down; GST pull-down of EcLPAAT with GST-BARS (5 μg) first incubated with 100 μM NAD^+ for 1 h at room temperature; both purified
[8] = molecular target: CtBP1-S/BARS (BARS-pCDNA3) (UniProt Q9Z2F5); assay: co-IP; IP with anti-BARS polyclonal antibody from 0.8 mg COS7 lysate, with or without 160 μg purified EcLPAAT (2 h, 4 °C); 0.2% Triton X-100
His-BARS = His-BARS (UniProt Q9Z2F5); assay: pull-down; histidine pull-down: His-BARS (20 μg, treated with buffer alone) with 1 mg lysate of LPAATδ–Flag expressing COS7 cells, Ni-NTA agarose, 4 °C; only the target purified

Question: Which results are given for His-BARS (from UniProt Q9Z2F5 1-430)?
Answer: binding (GST-LPAATδ (aa 152–251)): binds; binding (GST-LPAATδ (full length)): binds

Question: How did the binding (LPAATδ-tdTomato (human)) turn out when E^0GFP–BARS (from UniProt Q9Z2F5 1-430) was run?
Answer: The binding was “binds”.

Question: “CtBP1-S/BARS (BARS-pCDNA3) (from UniProt Q9Z2F5 1-430)” was tested. Which binding (LPAATδ–Flag (human) [1]) did it give?
Answer: Its binding is “binds”.

Question: What about the binding (LPAATγ–Flag (human)) of the same molecule?
Answer: The binding was “binds”.

Question: And the binding (LPAATδ–Flag (human) [2])?
Answer: The binding was “binds”.

B1: LPAATγ–Flag (enzyme, UniProt Q9NRZ7 1-376)
chain: T5 sequence
Question: With B1 as the molecule, how does the binding [3] read?
Answer: Its binding is “binds”.

B2: His-EcLPAAT (His-plsC) (enzyme, UniProt P26647 1-245)
chain: MLYIFRLIITVIYSILVCVFGSIYCLFSPRNPKHVATFGHMFGRLAPLFGLKVECRKPTDAESYGNAIYIANHQNNYDMVTASNIVQPPTVTVGKKSLLWIPFFGQLYWLTGNLLIDRNNRTKAHGTIAEVVNHFKKRRISIWMFPEGTRSRGRGLLPFKTGAFHAAIAAGVPIIPVCVSTTSNKINLNRLHNGLVIVEMLPPIDVSQYGKDQVRELAAHCRSIMEQKIAELDKEVAEREAAGKV
Question: For B2, which binding [4] is on record?
Answer: Its binding is “binds”.

Question: What about the binding (GST-BARS [5]) of the same molecule?
Answer: The binding was “binds”.

Question: And the binding (GST-BARS [6])?
Answer: The binding was “no binding”.

Question: What about the binding (GST-BARS [7]) of the same molecule?
Answer: The binding was “no binding”.

B3: LPAATδ–Flag (enzyme, UniProt Q9NRZ5 1-378)
chain: T2 sequence
Question: B3 was tested. Which binding [8] did it give?
Answer: Its binding is “binds”.

Question: What about the binding [3] of the same molecule?
Answer: The binding was “binds”.

Question: What about the binding (His-BARS) of the same molecule?
Answer: Its binding is “binds”.

B4: LPAATη–Flag (enzyme, UniProt Q643R3 1-524)
chain: MSQGSPGDWAPLDPTPGPPASPNPFVHELHLSRLQRVKFCLLGALLAPIRVLLAFIVLFLLWPFAWLQVAGLSEEQLQEPITGWRKTVCHNGVLGLSRLLFFLLGFLRIRVRGQRASRLQAPVLVAAPHSTFFDPIVLLPCDLPKVVSRAENLSVPVIGALLRFNQAILVSRHDPASRRRVVEEVRRRATSGGKWPQVLFFPEGTCSNKKALLKFKPGAFIAGVPVQPVLIRYPNSLDTTSWAWRGPGVLKVLWLTASQPCSIVDVEFLPVYHPSPEESRDPTLYANNVQRVMAQALGIPATECEFVGSLPVIVVGRLKVALEPQLWELGKVLRKAGLSAGYVDAGAEPGRSRMISQEEFARQLQLSDPQTVAGAFGYFQQDTKGLVDFRDVALALAALDGGRSLEELTRLAFELFAEEQAEGPNRLLYKDGFSTILHLLLGSPHPAATALHAELCQAGSSQGLSLCQFQNFSLHDPLYGKLFSTYLRPPHTSRGTSQTPNASSPGNPTALANGTVQAPKQKGD
Question: How did the binding [3] turn out when B4 was run?
Answer: Its binding is “no binding”.

Source: PMC4945875
